# In publication PMC4336329 (PLoS ONE, 2015):
# The whole screen tested about 310,000 compounds, of which about 14,000 (4.5%) showed an effect of 50% or more. The effect is printed as a negative number. The list shows a part of the results.
# Biological target: human ether-à-go-go-related gene (hERG) potassium channel (human, UniProt Q12809)
# Assay: primary screen, population patch clamp on CHO cells stably expressing hERG
# 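Note: peak tail current of the secondary pulse compared with the same well before compound.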
# Chain of human ether-à-go-go-related gene (hERG) potassium channel (Q12809 whole entry, looked up): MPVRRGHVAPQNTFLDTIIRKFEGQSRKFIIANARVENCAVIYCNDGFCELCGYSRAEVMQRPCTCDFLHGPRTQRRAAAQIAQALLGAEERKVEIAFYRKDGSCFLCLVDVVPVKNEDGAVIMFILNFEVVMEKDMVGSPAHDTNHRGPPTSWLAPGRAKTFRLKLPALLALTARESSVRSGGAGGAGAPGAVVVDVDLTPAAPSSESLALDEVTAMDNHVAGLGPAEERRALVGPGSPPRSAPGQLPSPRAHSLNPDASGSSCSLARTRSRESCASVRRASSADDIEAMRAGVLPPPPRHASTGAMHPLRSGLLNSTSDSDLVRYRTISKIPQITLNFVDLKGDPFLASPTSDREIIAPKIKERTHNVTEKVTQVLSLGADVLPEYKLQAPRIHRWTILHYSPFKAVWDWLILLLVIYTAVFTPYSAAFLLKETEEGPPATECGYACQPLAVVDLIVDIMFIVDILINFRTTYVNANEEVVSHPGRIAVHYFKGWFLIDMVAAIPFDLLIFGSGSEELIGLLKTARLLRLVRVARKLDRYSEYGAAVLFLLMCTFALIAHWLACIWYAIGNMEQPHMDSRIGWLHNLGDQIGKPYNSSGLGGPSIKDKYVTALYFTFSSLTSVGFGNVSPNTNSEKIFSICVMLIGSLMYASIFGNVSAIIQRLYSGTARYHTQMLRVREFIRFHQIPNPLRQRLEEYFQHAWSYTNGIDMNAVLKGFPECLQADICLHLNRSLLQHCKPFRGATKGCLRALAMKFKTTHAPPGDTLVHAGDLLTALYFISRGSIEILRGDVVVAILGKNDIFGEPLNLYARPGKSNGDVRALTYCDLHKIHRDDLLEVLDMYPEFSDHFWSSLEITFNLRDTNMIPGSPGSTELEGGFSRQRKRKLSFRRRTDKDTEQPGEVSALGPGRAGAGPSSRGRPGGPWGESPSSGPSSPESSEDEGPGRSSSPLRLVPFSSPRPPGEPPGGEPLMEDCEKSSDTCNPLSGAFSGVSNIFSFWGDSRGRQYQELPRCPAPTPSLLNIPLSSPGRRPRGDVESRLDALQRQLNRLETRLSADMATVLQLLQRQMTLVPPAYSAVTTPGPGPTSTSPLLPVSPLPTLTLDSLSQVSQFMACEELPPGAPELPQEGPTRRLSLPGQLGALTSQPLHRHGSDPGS
row,SMILES,"hERG current change (%, negative = inhibition) at 10uM"
1,O=S(=O)(c1ccc(SCCO)nc1)N1CCOCC1,-2%
2,CCOc1ccc(CCNC(=O)CSc2cc(=O)n(C)c3ccccc23)cc1OCC,0.88%
3,C[C@@H]1C=C[C@](Cc2ccccc2)(C(=O)O)N1C(=O)c1ccccc1,14.8%
4,Cc1nccn1CCOc1ccc(Cl)cc1.O=C(O)C(=O)O,-38.4%
5,COc1ccc(NC(=O)c2ccc(-c3csc(C)n3)cc2)cc1,18.5%
6,CC1CC(C)CN(C(=O)C2CCN(S(=O)(=O)c3cccs3)CC2)C1 (stereo not shown),-6.27%
7,CCCCCc1ccc(-c2cn(Cc3ccc(C)cc3)nn2)cc1,31.8%
8,COc1ccc(-c2ccc3c(c2)S(=O)(=O)c2cccc(C(=O)NC[C@@H]4CCCO4)c2C3=O)cc1OC,5.87%
9,CCCCOc1ccc(C2NC(=O)NC(C)=C2C(C)=O)cc1OCC (stereo not shown),5.32%
10,CN1CCN(C(=O)c2cc3c(s2)-c2ccccc2S(=O)(=O)C3)CC1,4.14%
11,CCCn1c(CNC(=O)Cc2ccccc2)nc2ccccc21,-21.3%
12,CCC(NC(=O)c1cc(COc2cncc(Cl)c2)on1)c1ccc(C)cc1 (stereo not shown),-24.3%
13,CN(C)C(=O)C12CCC(C)(C(=O)C1Br)C2(C)C (stereo not shown),16.4%
14,c1ccc(CCCCN2C(Nc3ccccc3)=NC[C@@H]2Cc2ccccc2)cc1,-71.5%
15,COc1ccc(OC)c(C2=NS(=O)(=O)N(C)C(C(=O)NCc3cccs3)=C2)c1,-28%
16,CC(C)Cc1cc(C(=O)N2CCCC(C(=O)c3cc(F)ccc3F)C2)no1 (stereo not shown),-26.2%
17,Cc1nc(NN)nc(NCc2ccccc2)n1,1.47%
18,CN1CCC(CNC(=O)Nc2csc3ccccc23)CC1,-8.26%
19,CC(C)c1ccc(Nc2nnns2)cc1,11.7%
20,Fc1ccc(-n2cc(-c3ccccc3)c3c(=S)nc[nH]c32)cc1,-3.14%
21,CCN(CC)C(=O)c1[nH]cnc1C(=O)N[C@@H](Cc1ccccc1)C(=O)OCc1ccccc1,9.64%
22,Cc1nc2cc(NC(=O)CS(=O)(=O)c3ccccc3)ccc2s1,-23.8%
23,CCCCN(C)C(=O)C(Cc1ccccc1)NS(=O)(=O)c1ccc2c(c1)c(=O)n(C)c(=O)n2C (stereo not shown),-17%
24,COc1ccc(CNC(=O)COC(=O)c2n[nH]c3ccccc23)cc1OC,-29.9%
25,COc1ccc(CCNC(=O)C2CC(=O)N(C3CCCCC3)C2)cc1OC (stereo not shown),27.5%
